According to PubChem BioAssay AID1347073 (National Center for Advancing Translational Sciences (NCATS), 2019):
Hit rate of the full screen: of about 45,000 compounds, about 200 (0.44%) were called active. Roughly 7% stayed inconclusive and do not appear here. Calls follow the shape of the dose curve; as a rule, active = well fitted activation curve with a large enough effect; inconclusive = small, poorly fitted or top-dose-only effect; inactive = no such curve, though single readings can be large or run the other way. The list shows a part of the results.

test: qHTS of TDP-43 Inhibitors: NCGC Sytravon Library Screen; conditions: yeast TDP-43 toxicity rescue, BacTiter-Glo growth, 24 h; series mostly up to 46.1 µM; growth rescue (activation): at the top concentration; also: 0% is about no effect; nearly all actives have a fitted effect of over 55% in size
Procedure, shortened: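 TDP-43-expressing yeast, pregrown in raffinose, seeded at OD600 0.02 in galactose medium with compound for 24 hr at 30 deg C. Growth read by BacTiter-Glo luminescence, so rescue of toxicity appears as activation.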

Structure (SMILES)	growth rescue (activation)
COc1cc2c(cc1OC)C(CC(=O)O)N(C(=O)CC1CCCC1)CC2 (stereo not drawn)	inactive: 5.85%
CS(=O)(=O)CC(=O)Nc1ccc2nc3n(c(=O)c2c1)CCCCC3	inactive: -12.6%
CN(C)c1ccc(/C=C2\SC(=O)N(CC(O)Cn3c4ccccc4c4ccccc43)C2=O)cc1 (stereo not drawn)	inactive: -7.68%
COC(=O)CCN(C(=O)c1cccc([N+](=O)[O-])c1)c1ccccn1	inactive: 5.55%
CCNCc1nc2cc(Cl)ccc2c(=O)[nH]1	inactive: -18.1%
Cc1ccc(Oc2ccc(NC(=O)CSc3n[nH]c(N)n3)cc2)cc1	inactive: -0.398%
Oc1[nH]c2ccccc2c1C1=NCCCCC1	inactive: 36.2%
COc1ccc(OCCNc2cc(N3CCCCC3)ccc2[N+](=O)[O-])cc1	inactive: 31.1%
COc1ccc(/C=N/NC(=O)c2ccc(Cl)c(S(N)(=O)=O)c2)cc1OCC(N)=O	inactive: 20.8%
COc1cc(SC)ccc1C(=O)Nc1ccc(S(=O)(=O)N2CCCC2)cc1	inactive: -14.6%
NC(=O)CC[C@H](NC(=O)OCc1ccccc1)C(=O)OCc1ccc(Cl)cc1	inactive: 10.1%
CCOc1ccc2c(c1)nc(C)n2C	inactive: -6.95%
CC1(C(=O)NS(=O)(=O)c2ccccc2)CCN1C(=O)Cc1ccc(Cl)cc1Cl (stereo not drawn)	inactive: -2.47%
CC(C)NC(=O)c1cc(C2CCCCN2C(=O)OCCF)on1 (stereo not drawn)	inactive: 8.34%
Cn1c(SCC(=O)NC2CCCCC2)nnc1-c1ccccc1F	inactive: 0.633%
O=C(O)c1ccc(NNC(=S)Nc2cc(C(F)(F)F)ccc2Cl)cc1	inactive: 2.15%
CC(=O)Nc1ccc(/C(C)=N/NS(=O)(=O)c2ccccc2)cc1	inactive: 14.5%
O=C(Nc1ccc(C(=O)N2CCOCC2)cc1)c1cccc([N+](=O)[O-])c1	inactive: -19.7%
COc1ccc(-c2nc(CNS(=O)(=O)c3ccccc3)cs2)cc1	inactive: 0.869%
O=C(Nc1cccc(Cl)c1Cl)c1ccccc1OCC(=O)N1CCOCC1	inactive: 6.52%
O=S(=O)(NC1CCCCC1)c1cccs1	inactive: 5.97%
C=C(C)C1CC=C(C)/C(=N/NC(=O)C2CC2c2ccccc2)C1 (stereo not drawn)	inactive: -10.3%
COC(=O)C1CCN(CC(=O)Nc2ccccc2Sc2ccccc2)CC1	inactive: 8.85%
CCCC(=O)N(c1ccc2oc(C)c(C(C)=O)c2c1)S(=O)(=O)c1ccc(C(=O)O)cc1	inactive: -7.37%
O=C(COc1ccc(Br)cc1)NCCCNC(=O)c1cnccn1	inactive: 0.494%
O=C(Nc1ccccn1)c1csc2c1CCCC2	inactive: 34.4%
CCOC(=O)C1CCN(C(=O)CCc2c(C)nc3cc(-c4ccc(OC)cc4OC)nn3c2C)CC1	inactive: 9.39%

Structure (SMILES)	growth rescue (activation)
COc1ccccc1C(=O)NCCCNC(=O)c1cccnc1	inactive: -14.6%
O=C(c1ccc(-c2ccccc2)cc1)C1CCCN(Cc2ccncc2)C1 (stereo not drawn)	inactive: 11.2%
O=C(OCC(=O)N1CCc2ccccc2C1)c1ccc(F)cc1Cl	inactive: 2.45%
COc1ccc(NC(=O)Nc2cccnc2)c(OC)c1	inactive: -0.628%
COc1ccc(NC(=O)NCCc2ccc(Cl)cc2)cc1OC	inactive: 2.36%
O=C1NCCN(Cc2ccoc2)C1CC(=O)N(Cc1ccccc1)CC1CCC1 (stereo not drawn)	inactive: 0.389%
COC(=O)Cc1ccc(NC(=S)NCc2ccccc2OC)cc1	inactive: -5.49%
Cc1cc(C)n2c(nc3ccccc32)c1C(=O)NCc1ccccc1	inactive: 15%
Cc1ccc(C(=O)NCC(=O)OCC(=O)c2ccc3c(c2)NC(=O)CO3)cc1	inactive: 13.4%
CC1Cc2ccccc2N1CC(=O)Nc1ccc(S(N)(=O)=O)cc1 (stereo not drawn)	inactive: -12.2%
O=C(Nc1ccc(Br)cc1F)c1ccncc1	inactive: -1.04%
COc1cc(N(C(=O)Cc2cccs2)C(C(=O)NC2CCCCC2)c2cccc(OC)c2OC)ccc1-n1cnnn1 (stereo not drawn)	inactive: 19.3%
Cc1c(N/C=C/C(=O)C(F)(F)F)c(=O)n(-c2ccccc2)n1C	inactive: -6.95%
Cn1c(CC(=O)Nc2ccccc2)nnc1SCC(=O)NC1CCCC1	inactive: -15.4%
COc1ccc(CC(=O)OCC(=O)NCc2ccc(Cl)cc2)cc1	inactive: 16.7%
CCc1nc2c(OCCOc3ccccc3)cccn2c1N(C)C(=O)c1cccs1	inactive: -6.65%
CC1CCCCN1C(=O)CCn1c(=S)oc2ccccc21 (stereo not drawn)	inactive: 21.2%
O=C(COc1ccccc1[N+](=O)[O-])OCC(=O)c1ccc(Br)s1	inactive: 8.37%
O=C(COC(=O)c1cccc(S(=O)(=O)N2CCOCC2)c1)NCc1ccc2c(c1)OCO2	inactive: 2.48%
COc1ccc(NC(=O)c2ccc(NS(=O)(=O)c3cccc4cccnc34)cc2)cc1	inactive: -0.194%
CCCNC(=O)C1(C)CCN(C(=O)c2ccccc2OC)C1 (stereo not drawn)	inactive: 0.915%
O=C(NCc1cccc(C(F)(F)F)c1)c1ccc2sc(COCCO)nc2c1	inactive: 2.57%
CC(=O)c1ccc(OCC(=O)Nc2cccc(S(=O)(=O)N3CCCC3)c2)cc1	inactive: -3.05%
N#Cc1cccc(NC(=O)CC2CCCC2)c1	inactive: 23.7%
O=C(OCc1ccc([N+](=O)[O-])cc1)C1CC(=O)N(Cc2ccccc2)C1 (stereo not drawn)	inactive: 21.2%
COc1ccc2[nH]c(=O)c(CNc3ccc(C)c(C)c3)cc2c1	inactive: -0.0204%
